From PubChem BioAssay AID1468 (National Center for Advancing Translational Sciences (NCATS), 2008)
Where “and” joins values, the source holds several entries; their conditions need not be identical. Equal values may be shown once. Screen size: about 280,000 compounds; about 1,100 (0.39%) were called active. This list was built around the results that the source calls inconclusive (neither active nor inactive); the mix of calls is not that of the screen. Calls follow the shape of the dose curve; as a rule, active = well fitted inhibition curve with a large enough effect; inconclusive = small, poorly fitted or top-dose-only effect, or effect the other way; inactive = flat fitted curve, though single readings scatter. Potencies beside an inconclusive call are fits to weak or partial responses and may not hold up.

What follows are compounds tested against Microtubule-associated protein tau (Homo sapiens) (UniProt P10636) (assay: qHTS for Inhibitors of Tau Fibril Formation, Fluorescence Polarization). Settings: K18 P301L tau heparin fibrillization, Alexa594 FP, 6 h; series mostly up to 57.7 µM.
How it was run: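 FP of Alexa 594-tau after heparin (20 uM) induction. Substrate: human K18 P301L, 15 uM unlabeled, 0.24 uM labeled. Buffer 100 mM sodium acetate pH 7. 6 hr, 37 C.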
Also: nearly all actives have a fitted effect of over 55% in size.
Potency is read from the fitted curve at half-maximal effect; tags tell the direction and shape of the fitted curve.

Sequence of UniProt P10636 (P10636 whole entry, looked up): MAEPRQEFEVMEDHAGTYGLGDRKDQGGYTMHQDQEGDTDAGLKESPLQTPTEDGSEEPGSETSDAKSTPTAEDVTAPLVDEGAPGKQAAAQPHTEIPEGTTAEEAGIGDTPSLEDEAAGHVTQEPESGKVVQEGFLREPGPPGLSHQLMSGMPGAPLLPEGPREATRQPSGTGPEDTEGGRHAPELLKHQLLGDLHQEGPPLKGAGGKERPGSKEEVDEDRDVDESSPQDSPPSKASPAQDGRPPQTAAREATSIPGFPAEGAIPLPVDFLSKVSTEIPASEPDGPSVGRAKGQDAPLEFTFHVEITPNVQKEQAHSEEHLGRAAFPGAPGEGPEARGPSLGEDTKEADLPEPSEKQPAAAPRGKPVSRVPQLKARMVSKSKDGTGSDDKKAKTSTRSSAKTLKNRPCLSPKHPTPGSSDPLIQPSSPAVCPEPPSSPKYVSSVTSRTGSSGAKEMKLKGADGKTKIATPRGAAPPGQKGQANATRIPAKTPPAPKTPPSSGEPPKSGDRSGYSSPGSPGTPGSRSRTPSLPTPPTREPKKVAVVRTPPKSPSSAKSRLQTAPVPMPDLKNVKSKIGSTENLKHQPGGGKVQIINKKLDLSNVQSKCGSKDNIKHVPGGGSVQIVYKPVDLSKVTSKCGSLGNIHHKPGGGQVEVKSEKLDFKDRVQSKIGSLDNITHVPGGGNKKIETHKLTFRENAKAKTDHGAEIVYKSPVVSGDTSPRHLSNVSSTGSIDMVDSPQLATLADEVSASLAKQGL

Cc1ccc2nc(-c3ccc(NC(=O)CSc4ccccc4)cc3)[nH]c2c1 was tested. Which Potency did it give?
The Potency was inconclusive: 14.1 µM [inhibitor, partial curve].

CCOc1ccc(NC(=O)Cn2sc3nc(C)cc(C)c3c2=O)cc1 was tested. Which Potency did it give?
Its Potency is active: 20 µM.

With O=C(CSC1=NS(=O)(=O)c2ccccc21)Nc1ccccc1 as the compound, how does the Potency read?
The Potency was inconclusive: 28.2 µM [inhibitor, partial curve].

Which Potency does the source give for CC1(C)OC2CC3C4CC(F)C5=CC(=O)C=C[C@@]5(C)[C@@]4(F)C(O)C[C@@]3(C)[C@]2(C(=O)CO)O1 (stereo partly specified) here?
The Potency was inconclusive: 15.8 µM [inhibitor, partial curve].

CCOc1ccc(NC(=O)c2ccc(NCC(=O)N3CCCCCC3)cc2)cc1 was tested. Which Potency did it give?
The Potency was “inactive”.

How did the Potency turn out when Cc1cc(Br)ccc1NC(=O)c1coc(=O)c2ccccc12 was run?
Its Potency is inconclusive: 44.7 µM [inhibitor, single point].

With O=C(Cc1ccc(Nc2nc3ccc(Br)cc3[nH]2)cc1)NCCc1cccs1 as the compound, how does the Potency read?
Its Potency is inconclusive: 0.398 µM [activator, single point].

Which Potency does the source give for O=C(Nc1ccc(Cl)c(Cl)c1)c1cc(S(=O)(=O)N2CCN(c3cccc(Cl)c3)CC2)ccc1F here?
The Potency was inconclusive: 17.8 µM [inhibitor, partial curve].

How did the Potency turn out when CN(C)c1cccc(C(=O)NNC(=S)NC2CC3CCC2C3)c1 (stereo unspecified) was run?
Its Potency is “inactive”.

For Cn1c(CO)c(-c2ccccc2)c2cc([N+](=O)[O-])ccc21, which Potency is on record?
The Potency was inconclusive: 39.8 µM [inhibitor, single point].

For O=C(CSc1nccc(-c2cccs2)n1)Nc1ccc(Cl)cc1, which Potency is on record?
Its Potency is inconclusive: 7.08 µM [inhibitor, partial curve].

Which Potency does the source give for O=C(O)c1cc2c([nH]c1=O)CCCC2 here?
The Potency was “inactive”.

How did the Potency turn out when COc1ccccc1N1CCN(CCCNc2cc(=O)n(C)c(=O)n2C)CC1 was run?
The Potency was inconclusive: 17.8 µM [inhibitor, partial curve, poor fit] and inconclusive: 11.2 µM [inhibitor, partial curve].

Which Potency does the source give for Cc1ccc(NC(=O)Cn2sc3nc(C)cc(C)c3c2=O)c(Cl)c1 here?
The Potency was inconclusive: 31.6 µM [inhibitor, partial curve].

For NS(=O)(=O)c1ccc(N=Nc2c(O)c(C(=O)O)cc3ccccc23)cc1, which Potency is on record?
The Potency was inconclusive: 35.5 µM [inhibitor, single point].

CCc1ccccc1NC(=O)c1cc2sc(Cl)cc2n1CC was tested. Which Potency did it give?
Its Potency is inconclusive: 0.316 µM [activator, full curve, poor fit].

Which Potency does the source give for O=C(c1cccs1)c1cn(CCOc2ccc(F)cc2)c2ccccc12 here?
The Potency was inconclusive: 7.94 µM [inhibitor, partial curve].

With O=C(NCCSc1ccccc1)c1ccccc1Cl as the compound, how does the Potency read?
Its Potency is “inactive”.

For Cc1ccc(-c2nc(C)sc2CC(=O)NCc2ccco2)cc1, which Potency is on record?
Its Potency is inconclusive: 39.8 µM [inhibitor, single point].

CCCc1cc(=S)n2c([nH]c3ccccc32)c1C#N was tested. Which Potency did it give?
Its Potency is inconclusive: 28.2 µM [inhibitor, partial curve, poor fit].

With O=C(Cn1cnc2onc(-c3ccc(F)cc3)c2c1=O)N1CCN(c2ccccc2F)CC1 as the compound, how does the Potency read?
The Potency was inconclusive: 22.4 µM [inhibitor, single point].

For CCN1CCc2c(sc(NC(=O)Nc3ccc(Cl)c(Cl)c3)c2C(N)=O)C1, which Potency is on record?
The Potency was “inactive”.

How did the Potency turn out when O=C(OC[C@@H]1O[C@@](O)(COC(=O)c2cccnc2)[C@H](OC(=O)c2cccnc2)[C@H]1OC(=O)c1cccnc1)c1cccnc1 was run?
The Potency was inconclusive: 39.8 µM [inhibitor, single point].

For COc1ccc(CNC(=O)C2CCN(S(=O)(=O)c3c(C)noc3/C=C/c3cccs3)CC2)cc1, which Potency is on record?
The Potency was inconclusive: 8.91 µM [inhibitor, partial curve].

Cc1ccc(NC(=O)c2c(C(=O)Nc3ccccc3)sc3nc(C)cc(=O)n23)cc1 was tested. Which Potency did it give?
The Potency was inconclusive: 39.8 µM [inhibitor, single point].

With CC(C(=O)NCc1cccc(Br)c1)n1ncn2cccc2c1=O (stereo unspecified) as the compound, how does the Potency read?
Its Potency is inconclusive: 7.08 µM [activator, single point].

COc1cc2ccccc2cc1C(=O)Nc1cccc(-c2nc3ccccc3o2)c1 was tested. Which Potency did it give?
The Potency was inconclusive: 44.7 µM [inhibitor, single point].

How did the Potency turn out when COC(=O)CCCC1=CC2=CC(=O)C(C)(OC(=O)c3cccs3)C(=O)C2=CN1c1ccc(OC)cc1 (stereo unspecified) was run?
The Potency was inconclusive: 10 µM [inhibitor, partial curve].

With CC1=C(C(=O)Nc2ccc(C)cc2Cl)C2(CCCCC2)OC1=O as the compound, how does the Potency read?
The Potency was “inactive”.

Which Potency does the source give for Cc1ccc2oc(=O)c3c4cc(O)c(O)cc4oc3c2c1 here?
The Potency was “inactive”.

S=C(Cc1cccnc1)N1CCOCC1 was tested. Which Potency did it give?
The Potency was “inactive”.

How did the Potency turn out when CSC1=N/C(=C\c2ccccc2Cl)C(=O)N1N(C)C was run?
The Potency was inconclusive: 39.8 µM [inhibitor, single point].

Which Potency does the source give for COc1ccc(C(=O)Oc2ccc(/C=N/NC(=O)c3ccccc3OC)cc2[N+](=O)[O-])cc1 here?
Its Potency is “inactive”.

For Nc1nn(-c2ccccc2)nc1C(=O)OCc1ccccc1Br, which Potency is on record?
Its Potency is inconclusive: 3.16 µM [inhibitor, partial curve, poor fit].

Which Potency does the source give for CC(C)CCn1nnnc1CN1CCN(c2ccc(F)cc2)CC1 here?
Its Potency is “inactive”.

For Cc1ccc(S(=O)(=O)Nc2ccc3nc(-c4cccn4C)[nH]c3c2)cc1, which Potency is on record?
The Potency was inconclusive: 39.8 µM [activator, single point].

For O=C(Nc1cccc(-c2nc3ccccc3[nH]2)c1)c1c(F)cccc1F, which Potency is on record?
Its Potency is inconclusive: 28.2 µM [inhibitor, partial curve, poor fit].

With CC1CN(C(=O)COC(=O)c2c(Cl)cccc2Cl)CC(C)O1 (stereo unspecified) as the compound, how does the Potency read?
The Potency was “inactive”.

N#CCC(CNc1ncc(C(F)(F)F)cc1Cl)OC(=O)c1cccc(C(F)(F)F)c1 (stereo unspecified) was tested. Which Potency did it give?
The Potency was inconclusive: 17.8 µM [inhibitor, partial curve].

Which Potency does the source give for CN1C2C=C3C(C#N)=C(N)C(C#N)(C#N)[C@@H](c4cccc(F)c4)[C@@H]3C1CC2 (stereo partly specified) here?
Its Potency is inconclusive: 15.8 µM [inhibitor, partial curve].

For Cc1cc(C)cc(NC(=S)Nc2cccc3cnccc23)c1, which Potency is on record?
The Potency was inconclusive: 17.8 µM [inhibitor, partial curve, poor fit].

How did the Potency turn out when O=C(NNC(=S)NCc1ccco1)c1ccc(S(=O)(=O)N2CCOCC2)cc1 was run?
The Potency was inconclusive: 8.91 µM [inhibitor, single point].

With Cc1ccc(-c2noc(-c3nnn(CC(=O)Nc4cccc(C(F)(F)F)c4)c3N)n2)cc1 as the compound, how does the Potency read?
The Potency was inconclusive: 28.2 µM [inhibitor, single point].

With COc1ccc(-c2nnc(SC(C)C(=O)Nc3nccs3)n2Cc2ccccc2)cc1OC (stereo unspecified) as the compound, how does the Potency read?
The Potency was inconclusive: 0.282 µM [inhibitor, full curve, poor fit].

Which Potency does the source give for N#CCC(=O)NCCCOC(=O)Nc1ccc(Cl)c(Cl)c1 here?
The Potency was inconclusive: 39.8 µM [inhibitor, single point].

For O=C(NNC(=O)c1cc(OCC(F)(F)F)ccc1OCC(F)(F)F)c1ccc(Cl)c(Cl)c1, which Potency is on record?
Its Potency is inconclusive: 22.4 µM [inhibitor, partial curve, poor fit].

Which Potency does the source give for O=C(NCc1ccccc1Cl)c1ccc(NC(=O)c2nsc3ccccc23)cc1 here?
Its Potency is inconclusive: 22.4 µM [inhibitor, single point].

With O=C1CCCc2c1sc1nc3n(c(=O)c21)CCCCC3 as the compound, how does the Potency read?
The Potency was “inactive”.

c1ccc(-c2cn3nc4c(nc3n2)CCCC4)cc1 was tested. Which Potency did it give?
Its Potency is inconclusive: 35.5 µM [inhibitor, single point].

Which Potency does the source give for COCCNC(=O)c1ccccc1NC(=O)Cc1ccccc1 here?
Its Potency is “inactive”.

Which Potency does the source give for CCOc1cc(C)c(C(C)C)cc1S(=O)(=O)n1ccnc1CC here?
The Potency was inconclusive: 8.91 µM [inhibitor, single point].

O=C(CNC(=O)c1ccccc1)NC1(C(=O)NC2CCCC2)CCCCC1 was tested. Which Potency did it give?
Its Potency is inconclusive: 44.7 µM [inhibitor, single point].

O=C(CSc1nnc(-c2ccncc2)n1-c1ccccc1)Nc1ccc(Br)cc1 was tested. Which Potency did it give?
The Potency was inconclusive: 17.8 µM [inhibitor, single point].

CC(C)c1ccc(S(=O)(=O)c2nnn3c2nc(N2CCOCC2)c2sccc23)cc1 was tested. Which Potency did it give?
Its Potency is “inactive”.

For CC1CCN(S(=O)(=O)c2ccc3c(ccn3CC(=O)NCc3ccc(N(C)C)cc3)c2)CC1, which Potency is on record?
Its Potency is inconclusive: 5.62 µM [activator, partial curve].

With Cc1ccc2cc(C(c3nnnn3C(C)(C)C)N3CCCC3)c(=O)[nH]c2c1C (stereo unspecified) as the compound, how does the Potency read?
The Potency was inconclusive: 3.55 µM [inhibitor, single point].

COc1ccc(CCC(=O)NCc2nc3cccnc3n2Cc2cccc(OC)c2)cc1 was tested. Which Potency did it give?
Its Potency is “inactive”.

Cn1nnnc1SCC(=O)N1c2ccccc2Sc2ccccc21 was tested. Which Potency did it give?
The Potency was “inactive”.

For CCC1CN(C(=O)N2CCC(C(=O)N3CCN(c4ccc(F)cc4)CC3)CC2)c2ccccc2O1 (stereo unspecified), which Potency is on record?
Its Potency is “inactive”.

With COc1cc2c(cc1OC)C1=C(C#N)COCN1CC2 as the compound, how does the Potency read?
Its Potency is “inactive”.

Cc1cc(Cl)ccc1OCC(=O)Nc1c(Cl)ccc2nsnc12 was tested. Which Potency did it give?
The Potency was inconclusive: 44.7 µM [inhibitor, single point].

How did the Potency turn out when O=c1cc(-c2ccc(Cl)c(Cl)c2)[nH][nH]1 was run?
Its Potency is inconclusive: 2.51 µM [inhibitor, full curve].

With O=C(CC(c1cccs1)N1Cc2ccccc2C1=O)Nc1ccc(F)c(F)c1 (stereo unspecified) as the compound, how does the Potency read?
Its Potency is inconclusive: 22.4 µM [inhibitor, single point].

Which Potency does the source give for Cc1ccc(C)c(S(=O)(=O)c2nnn3c2nc(Nc2ccc(C)c(C)c2)c2sccc23)c1 here?
Its Potency is inconclusive: 44.7 µM [inhibitor, single point].

With Nc1nc2c(ncn2C2CC(O)C(CO)O2)c(=O)[nH]1 (stereo unspecified) as the compound, how does the Potency read?
Its Potency is inconclusive: 0.501 µM [inhibitor, full curve, poor fit].

With O=c1c2ccccc2nc(SCc2ccccc2F)n1C1CCCC1 as the compound, how does the Potency read?
The Potency was inconclusive: 3.55 µM [inhibitor, single point].
